Patent US20200239541A1 (XYPHOS BIOSCIENCES, published 2020)
Numbering of substitutions follows the chain as printed.

T1: Y199A mutant NKG2D ectodomain (His-avitag, biotinylated) (human)
T1 construct: not shown: N-terminal His-avitag
T1 chain: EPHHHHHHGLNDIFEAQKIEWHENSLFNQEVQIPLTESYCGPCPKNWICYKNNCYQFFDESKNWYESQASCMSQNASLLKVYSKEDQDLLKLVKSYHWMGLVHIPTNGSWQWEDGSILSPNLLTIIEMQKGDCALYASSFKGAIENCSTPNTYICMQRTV

T2: His-avitag natural NKG2D ectodomain, biotinylated (human)
T2 construct: also called natural form of the ectodomain of NKG2D
T2 chain: T1 chain with A143Y

T3: double Y152A plus Y199A mutant NKG2D ectodomain (His-avitag, biotinylated) (human)
T3 construct: not shown: N-terminal His-avitag
T3 chain: T1 chain with Y96A

T4: Y152A mutant NKG2D ectodomain (His-avitag, biotinylated) (human)
T4 construct: also called Y152A non-natural NKG2D receptor; not shown: N-terminal His-avitag
T4 chain: T1 chain with Y96A, A143Y

B1: MICwed-Fc (Fc fusion)
chain: EPHSLRYNLTVLSWDGSVQSGFLTEVHLDGQPFLRCDRQKCRAKPQGQWAEDVLGNKTWDRETRDLTGWGKDLRMTLAHIKDQKEGLHSLQEIRVCEIHEDNSTRSSQHFYYDGELFLSQNLETKEWTMPQSSRAQTLAMNVRNFLKEDAMETDTHYHAMHADCLQELRRYLKSGVVLRRTVPPMVNVTRSEASEGNITVTCRASGFYPWNITLSWRQDGVSLSHDTQQWGDVLPDGNGTYQTWVATRISQGEEQRFTCYMEHSGNHSTHPVPSGKIEGRM[human IgG1 Fc left out here]
B2: MICv25-Fc (Fc fusion)
chain: B1 chain with K125L, H161R, Q166S
notes: also called DSM25 α1-α2-α3-Fc

Key:
Test in all cases: ELISA, ligand-Fc coated, biotinylated NKG2D titrated
[1] = biological target: T1, Y199A mutant NKG2D ectodomain …
Procedure: (§1) In addition to purifying the above 3 Fc-fusion proteins NKG2D ligand-Fc fusion proteins MICB-Fc, ULBP1-Fc, ULBP2-Fc, ULBP3-Fc, and ULBP4-Fc were purchased from R&D Systems, Inc. (Minneapolis, Minn.). Binding of the different α1-α2 domain-Fc fusions to both natural and non-natural NKG2D ectodomain proteins was analyzed using a plate-based ELISA method. All of the natural and non-natural α1-α2 domain-Fc fusions were coated overnight at 4° C. onto separate wells of Maxisorp 96 well plates using a coating concentration of 2 μg/ml in phosphate-buffered saline (PBS). The plates were washed 3-times in PBS/0.05% Tween20 at 20-22° C., and blocked with 0.5% bovine serum albumin for 2 hours. The biotinylated natural and non-natural NKG2D receptor proteins were titrated against the plate-bound NKG2D ligands for 2 hours at 20-22° C., washed 3 times with PBS/0.05% Tween20 at 20-22° C., and the bound NKG2D proteins subsequently detected using a streptavidin-HRP secondary detection step and developed with 1-Step Ultra TMB Elisa.

[2] = biological target: T2, His-avitag natural NKG2D ectodomain, …
Procedure: as §1

[3] = biological target: T3, double Y152A plus Y199A mutant NKG2D …
Procedure: as §1

[4] = biological target: T4, Y152A mutant NKG2D ectodomain …
Procedure: as §1

Binder | binding result [1] | binding result [2] | binding result [3] | binding result [4] | EC50 [2] [nM] | fold better than MICwed [2] [fold] | fold better than all natural α1-α2 domain ligands tested [2] [fold] | EC50 [4] [nM]
B1 | no binding | binds | no binding | no binding |  |  |  | 
B2 | no binding |  | no binding |  | 14 | 8 | > 100 | 50
